Measurements reported in the supplement of paper PMC10037445.
Several values for one entry are separate records, joined by “and”; a condition that tells them apart may be missing. Equal entries are not always repeated. The full ranking holds about 2,900 compounds; the median of “NF-kB SEAP reporter activity, fold change vs agonist alone” is about 0.99, and the highest 2% start at about 2.6. The list shows a part of the results.

What was measured:
RAW-Dual [1] = test: NF-kB SEAP reporter activity, fold change vs agonist alone; cytotoxicity flag (confluency mask): not cytotoxic; higher = enhanced NF-kB activity
Summary of the method: (§1)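 After 50 nL of library stock was delivered by pin tool to RAW-Dual macrophages (50,000 cells/well, DMEM, 384-well plates), a PRR agonist was added 1 h later and the plates were kept at 37 °C, 5% CO2. Twenty hours later, IRF was read from supernatant by QuantiLuc luminescence and NF-κB by QuantiBlue absorbance at 620 nm. Reporter activity is stated as fold change over agonist-alone wells. Wells with IncuCyte confluency under 70% of agonist controls in both mask sets were counted as cytotoxic.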

RAW-Dual [2] = test: NF-kB SEAP reporter activity, fold change vs agonist alone; higher = enhanced NF-kB activity; settings: library stock concentration (final ~1000-fold dilution): 10 mM, cytotoxicity flag (confluency mask): not cytotoxic
Summary of the method: as §1

[3] = agonist: ODN 1826 (TLR9) 0.5 ug/mL
[4] = agonist: Pam2CSK4 (TLR2/6) 0.1 ug/mL
[5] = agonist: Pam3CSK4 (TLR2/1) 0.1 ug/mL

SMILES: CC(C)(C)C1NC(=O)OC2CCCC2OC/C=C/C(F)(F)c2nc3ccccc3nc2OC2CC(C(=O)NC3(C(=O)NS(=O)(=O)C4(C)CC4)CC3C(F)F)N(C2)C1=O (centres undefined) (library stock concentration (final ~1000-fold dilution): 10 mM)
- NF-kB SEAP reporter activity (RAW-Dual [1]; agonist: LPS (TLR4) 0.1 ug/mL): 1.29
- NF-kB SEAP reporter activity (RAW-Dual [1]; [3]): 2.62
- NF-kB SEAP reporter activity (RAW-Dual [1]; [4]): 0.986
- NF-kB SEAP reporter activity (RAW-Dual [1]; [5]): 2.09

SMILES: CC(C)(C)C1NC(=O)OC2CCCC2OC/C=C/C(F)(F)c2nc3ccccc3nc2OC2CC(C(=O)NC3(C(=O)NS(=O)(=O)C4(C)CC4)CC3C(F)F)N(C2)C1=O (centres undefined)
- NF-kB SEAP reporter activity (RAW-Dual [2]; agonist: Imiquimod (TLR7) […]): 2.27
- NF-kB SEAP reporter activity (RAW-Dual [2]; agonist: MPLA (TLR4) […]): 2.15

SMILES: CC(=O)OC1(C(C)=O)CCC2C3C=C(Cl)C4=CC(=O)C5CC5C4(C)C3CCC21C (centres undefined)
- NF-kB SEAP reporter activity (RAW-Dual [2]; agonist: Imiquimod (TLR7) […]): 1.26
- NF-kB SEAP reporter activity (RAW-Dual [2]; agonist: MPLA (TLR4) […]): 1.21

SMILES: CC(=O)OC1(C(C)=O)CCC2C3C=C(Cl)C4=CC(=O)C5CC5C4(C)C3CCC21C (centres undefined) (library stock concentration (final ~1000-fold dilution): 10 mM)
- NF-kB SEAP reporter activity (RAW-Dual [1]; agonist: LPS (TLR4) 0.1 ug/mL): 1.2
- NF-kB SEAP reporter activity (RAW-Dual [1]; [3]): 1.01
- NF-kB SEAP reporter activity (RAW-Dual [1]; [4]): 0.777
- NF-kB SEAP reporter activity (RAW-Dual [1]; [5]): 1.08

SMILES: CCCOc1ccc(S(=O)(=O)NCCC2CCCN2C)cc1-c1nc(=O)c2c([nH]1)c(CCC)nn2C (centres undefined)
- NF-kB SEAP reporter activity (RAW-Dual [2]; agonist: Imiquimod (TLR7) […]): 1.42
- NF-kB SEAP reporter activity (RAW-Dual [2]; agonist: MPLA (TLR4) […]): 1.28

SMILES: CCCOc1ccc(S(=O)(=O)NCCC2CCCN2C)cc1-c1nc(=O)c2c([nH]1)c(CCC)nn2C (centres undefined) (library stock concentration (final ~1000-fold dilution): 10 mM)
- NF-kB SEAP reporter activity (RAW-Dual [1]; agonist: LPS (TLR4) 0.1 ug/mL): 1.02
- NF-kB SEAP reporter activity (RAW-Dual [1]; [3]): 0.517
- NF-kB SEAP reporter activity (RAW-Dual [1]; [4]): 0.99
- NF-kB SEAP reporter activity (RAW-Dual [1]; [5]): 1.14

SMILES: O=C(O)Cc1ccc(-c2ccccc2)cc1 (library stock concentration (final ~1000-fold dilution): 10 mM)
- NF-kB SEAP reporter activity (RAW-Dual [1]; agonist: LPS (TLR4) 0.1 ug/mL): 0.989
- NF-kB SEAP reporter activity (RAW-Dual [1]; [3]): 1.01
- NF-kB SEAP reporter activity (RAW-Dual [1]; [4]): 1
- NF-kB SEAP reporter activity (RAW-Dual [1]; [5]): 1.01

SMILES: O=C(O)Cc1ccc(-c2ccccc2)cc1
- NF-kB SEAP reporter activity (RAW-Dual [2]; agonist: Imiquimod (TLR7) […]): 1.15
- NF-kB SEAP reporter activity (RAW-Dual [2]; agonist: MPLA (TLR4) […]): 1.04

SMILES: CCN(CC)CC#CCOC(=O)C(O)(c1ccccc1)C1CCCCC1.Cl (centres undefined) (library stock concentration (final ~1000-fold dilution): 10 mM)
- NF-kB SEAP reporter activity (RAW-Dual [1]; agonist: LPS (TLR4) 0.1 ug/mL): 2.01
- NF-kB SEAP reporter activity (RAW-Dual [1]; [3]): 0.958
- NF-kB SEAP reporter activity (RAW-Dual [1]; [4]): 0.963
- NF-kB SEAP reporter activity (RAW-Dual [1]; [5]): 1.3

SMILES: CCN(CC)CC#CCOC(=O)C(O)(c1ccccc1)C1CCCCC1.Cl (centres undefined)
- NF-kB SEAP reporter activity (RAW-Dual [2]; agonist: Imiquimod (TLR7) […]): 1.75
- NF-kB SEAP reporter activity (RAW-Dual [2]; agonist: MPLA (TLR4) […]): 1.46

SMILES: Cc1nnc(C(=O)NC(C)(C)c2nc(C(=O)NCc3ccc(F)cc3)c(O)c(=O)n2C)o1 (library stock concentration (final ~1000-fold dilution): 10 mM)
- NF-kB SEAP reporter activity (RAW-Dual [1]; agonist: LPS (TLR4) 0.1 ug/mL): 1.03 and 0.963
- NF-kB SEAP reporter activity (RAW-Dual [1]; [3]): 1.01 and 1.12
- NF-kB SEAP reporter activity (RAW-Dual [1]; [4]): 1.07 and 1.12
- NF-kB SEAP reporter activity (RAW-Dual [1]; [5]): 1.07 and 1.25

SMILES: Cc1nnc(C(=O)NC(C)(C)c2nc(C(=O)NCc3ccc(F)cc3)c(O)c(=O)n2C)o1
- NF-kB SEAP reporter activity (RAW-Dual [2]; agonist: Imiquimod (TLR7) […]): 0.948

SMILES: CC(=O)OC1CC2(C)C(CC(O)C3C4(C)CCC(O)C(C)C4CCC32C)/C1=C(\CCC=C(C)C)C(=O)O (centres undefined)
- NF-kB SEAP reporter activity (RAW-Dual [2]; agonist: Imiquimod (TLR7) […]): 0.937
- NF-kB SEAP reporter activity (RAW-Dual [2]; agonist: MPLA (TLR4) […]): 0.977

SMILES: CC(=O)OC1CC2(C)C(CC(O)C3C4(C)CCC(O)C(C)C4CCC32C)/C1=C(\CCC=C(C)C)C(=O)O (centres undefined) (library stock concentration (final ~1000-fold dilution): 10 mM)
- NF-kB SEAP reporter activity (RAW-Dual [1]; agonist: LPS (TLR4) 0.1 ug/mL): 0.844
- NF-kB SEAP reporter activity (RAW-Dual [1]; [3]): 0.976
- NF-kB SEAP reporter activity (RAW-Dual [1]; [4]): 0.952
- NF-kB SEAP reporter activity (RAW-Dual [1]; [5]): 0.905

SMILES: C=C1C(=O)OC2/C=C(\C)CC/C=C(\C)CCC12 (centres undefined) (library stock concentration (final ~1000-fold dilution): 10 mM)
- NF-kB SEAP reporter activity (RAW-Dual [1]; agonist: LPS (TLR4) 0.1 ug/mL): 0.231
- NF-kB SEAP reporter activity (RAW-Dual [1]; [3]): 0.213
- NF-kB SEAP reporter activity (RAW-Dual [1]; [4]): 0.153
- NF-kB SEAP reporter activity (RAW-Dual [1]; [5]): 0.197

SMILES: C=C1C(=O)OC2/C=C(\C)CC/C=C(\C)CCC12 (centres undefined)
- NF-kB SEAP reporter activity (RAW-Dual [2]; agonist: Imiquimod (TLR7) […]): 0.262
- NF-kB SEAP reporter activity (RAW-Dual [2]; agonist: MPLA (TLR4) […]): 0.198

SMILES: COC(=O)c1ccc2c(c1)nc(NC(=O)c1ccccc1)n2CCCc1ccccc1
- NF-kB SEAP reporter activity (RAW-Dual [2]; agonist: Imiquimod (TLR7) […]): 0.865
- NF-kB SEAP reporter activity (RAW-Dual [2]; agonist: MPLA (TLR4) […]): 0.827
